# Experimental data published in the supplement of paper PMC8728848.
# The list shows a part of the results.
# B1: Banana lectin (Musa acuminata) (protein)
# chain: MNGAIKVGAHGGNGGSAFDMGPAYRIISVKIFSGDVVDGVDVTFTYYGKTETRHYGGSGGTPHEIVLQEGEYLVGMAGEVANYHGAVVLGKLGFSTNKKAYGPFGNTGGTPFSLPIAAGKISGFFGRGGKFLDAIGVYLEPLEHHHHHH
# Key:
# Test in all cases: glycan array binding signal (z-score within array); higher = stronger binding
# Details in all cases: glycan notation: IUPAC condensed, linker removed; mutation: W10H
# [1] = molecular target: Neu5Ac(a2-3)Gal(b1-3)]Neu5Ac(a2-3)Gal(b1-4)]GlcNAc
# Outline: (§1)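 Arrays were curated from the Consortium for Functional Glycomics database, 3228 in total, and kept only where the protein sequence was available. Binding is expressed as a within-array Z-score. This score was averaged across arrays of the same protein sequence at different concentrations or buffers and across linkers, and negative values can be read as non-binding.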
# [2] = molecular target: Neu5Ac(a2-3)Gal(b1-4)Glc
# Outline: as §1
# [3] = molecular target: Neu5Ac(a2-3)Gal(b1-4)GlcNAc
# Outline: as §1
# [4] = molecular target: Neu5Ac(a2-3)Gal(b1-4)GlcNAc(b1-2)Man
# Outline: as §1
# [5] = molecular target: Neu5Ac(a2-3)Gal(b1-4)GlcNAc(b1-2)Man(a1-3)[GlcNAc(b1-4)][Neu5Ac(a2-3)Gal(b1-4)GlcNAc(b1-2)Man(a1-6)]Man(b1-4)GlcNAc(b1-4)GlcNAc
# Outline: as §1
# [6] = molecular target: Neu5Ac(a2-3)Gal(b1-4)GlcNAc(b1-2)Man(a1-3)[Neu5Ac(a2-3)Gal(b1-4)GlcNAc(b1-2)Man(a1-6)]Man(b1-4)GlcNAc(b1-4)GlcNAc
# Outline: as §1
# [7] = molecular target: Neu5Ac(a2-3)Gal(b1-4)GlcNAc(b1-2)Man(a1-3)[Neu5Ac(a2-3)Gal(b1-4)GlcNAc(b1-2)Man(a1-6)]Man(b1-4)GlcNAc(b1-4)[Fuc(a1-6)]GlcNAc
# Outline: as §1
# [8] = molecular target: Neu5Ac(a2-3)Gal(b1-4)GlcNAc(b1-2)Man(a1-3)[Neu5Ac(a2-6)Gal(b1-4)GlcNAc(b1-2)Man(a1-6)]Man(b1-4)GlcNAc(b1-4)GlcNAc
# Outline: as §1
# [9] = molecular target: Neu5Ac(a2-3)Gal(b1-4)GlcNAc(b1-2)[Neu5Ac(a2-3)Gal(b1-4)GlcNAc(b1-4)]Man(a1-3)[GlcNAc(b1-4)][Neu5Ac(a2-3)Gal(b1-4)GlcNAc(b1-2)[Neu5Ac(a2-3)Gal(b1-4)GlcNAc(b1-6)]Man(a1-6)]Man(b1-4)GlcNAc(b1-4)GlcNAc
# Outline: as §1
# [10] = molecular target: Neu5Ac(a2-3)Gal(b1-4)GlcNAc(b1-2)[Neu5Ac(a2-3)Gal(b1-4)GlcNAc(b1-4)]Man(a1-3)[GlcNAc(b1-4)][Neu5Ac(a2-3)Gal(b1-4)GlcNAc(b1-4)Man(a1-6)]Man(b1-4)GlcNAc(b1-4)GlcNAc
# Outline: as §1
# [11] = molecular target: Neu5Ac(a2-3)Gal(b1-4)GlcNAc(b1-2)[Neu5Ac(a2-3)Gal(b1-4)GlcNAc(b1-6)]Man(a1-6)[Neu5Ac(a2-3)Gal(b1-4)GlcNAc(b1-2)Man(a1-3)][GlcNAc(b1-4)]Man(b1-4)GlcNAc(b1-4)GlcNAc
# Outline: as §1
# [12] = molecular target: Neu5Ac(a2-3)Gal(b1-4)GlcNAc(b1-3)Gal
# Outline: as §1
# [13] = molecular target: Neu5Ac(a2-3)Gal(b1-4)GlcNAc(b1-3)Gal(b1-3)GlcNAc
# Outline: as §1
# [14] = molecular target: Neu5Ac(a2-3)Gal(b1-4)GlcNAc(b1-3)Gal(b1-4)GlcNAc
# Outline: as §1
# [15] = molecular target: Neu5Ac(a2-3)Gal(b1-4)GlcNAc(b1-3)Gal(b1-4)GlcNAc(b1-2)Man(a1-3)[Neu5Ac(a2-3)Gal(b1-4)GlcNAc(b1-3)Gal(b1-4)GlcNAc(b1-2)Man(a1-6)]Man(b1-4)GlcNAc(b1-4)GlcNAc
# Outline: as §1
# [16] = molecular target: Neu5Ac(a2-3)Gal(b1-4)GlcNAc(b1-3)Gal(b1-4)GlcNAc(b1-3)Gal(b1-4)GlcNAc
# Outline: as §1
# [17] = molecular target: Neu5Ac(a2-3)Gal(b1-4)GlcNAc(b1-3)Gal(b1-4)GlcNAc(b1-3)Gal(b1-4)GlcNAc(b1-2)Man(a1-3)[Neu5Ac(a2-3)Gal(b1-4)GlcNAc(b1-3)Gal(b1-4)GlcNAc(b1-3)Gal(b1-4)GlcNAc(b1-2)Man(a1-6)]GalNAc
# Outline: as §1
# [18] = molecular target: Neu5Ac(a2-3)Gal(b1-4)GlcNAc(b1-3)Gal(b1-4)GlcNAc(b1-3)GalNAc
# Outline: as §1
# [19] = molecular target: Neu5Ac(a2-3)Gal(b1-4)GlcNAc(b1-3)Gal(b1-4)GlcNAc(b1-3)[Neu5Ac(a2-3)Gal(b1-4)GlcNAc(b1-3)Gal(b1-4)GlcNAc(b1-6)]GalNAc
# Outline: as §1
# [20] = molecular target: Neu5Ac(a2-3)Gal(b1-4)GlcNAc(b1-3)Gal(b1-4)GlcNAc(b1-6)[Gal(b1-3)]GalNAc
# Outline: as §1
# [21] = molecular target: Neu5Ac(a2-3)Gal(b1-4)GlcNAc(b1-3)Gal(b1-4)[Fuc(a1-3)]GlcNAc
# Outline: as §1
# [22] = molecular target: Neu5Ac(a2-3)Gal(b1-4)GlcNAc(b1-3)GalNAc
# Outline: as §1
# [23] = molecular target: Neu5Ac(a2-3)Gal(b1-4)GlcNAc(b1-3)[Neu5Ac(a2-3)Gal(b1-4)GlcNAc(b1-6)]GalNAc
# Outline: as §1
# [24] = molecular target: Neu5Ac(a2-3)Gal(b1-4)GlcNAc(b1-6)GalNAc
# Outline: as §1
# [25] = molecular target: Neu5Ac(a2-3)Gal(b1-4)GlcNAc(b1-6)[Gal(b1-3)]GalNAc
# Outline: as §1
# [26] = molecular target: Neu5Ac(a2-3)Gal(b1-4)GlcNAc(b1-6)[Neu5Ac(a2-3)Gal(b1-3)]GalNAc
# Outline: as §1
# [27] = molecular target: Neu5Ac(a2-3)Gal(b1-4)GlcNAc6S
# Outline: as §1
# [28] = molecular target: Neu5Ac(a2-3)Gal(b1-4)[Fuc(a1-3)]GlcNAc
# Outline: as §1
# [29] = molecular target: Neu5Ac(a2-3)Gal(b1-4)[Fuc(a1-3)]GlcNAc(b1-2)Man
# Outline: as §1
# [30] = molecular target: Neu5Ac(a2-3)Gal(b1-4)[Fuc(a1-3)]GlcNAc(b1-3)Gal
# Outline: as §1
# [31] = molecular target: Neu5Ac(a2-3)Gal(b1-4)[Fuc(a1-3)]GlcNAc(b1-3)Gal(b1-4)GlcNAc
# Outline: as §1
# [32] = molecular target: Neu5Ac(a2-3)Gal(b1-4)[Fuc(a1-3)]GlcNAc(b1-3)Gal(b1-4)[Fuc(a1-3)]GlcNAc(b1-3)Gal(b1-4)[Fuc(a1-3)]GlcNAc
# Outline: as §1
# [33] = molecular target: Neu5Ac(a2-3)Gal(b1-4)[Fuc(a1-3)]GlcNAc(b1-3)GalNAc
# Outline: as §1
# [34] = molecular target: Neu5Ac(a2-3)Gal(b1-4)[Fuc(a1-3)]GlcNAc(b1-6)[Gal(b1-3)]GalNAc
# Outline: as §1
# [35] = molecular target: Neu5Ac(a2-3)Gal(b1-4)[Fuc(a1-3)]GlcNAc(b1-6)[Neu5Ac(a2-3)Gal(b1-3)]GalNAc
# Outline: as §1
# [36] = molecular target: Neu5Ac(a2-3)Gal(b1-4)[Fuc(a1-3)]GlcNAc6S
# Outline: as §1
# [37] = molecular target: Neu5Ac(a2-3)Gal6S(b1-4)GlcNAc
# Outline: as §1
# [38] = molecular target: Neu5Ac(a2-3)Gal6S(b1-4)[Fuc(a1-3)]GlcNAc
# Outline: as §1
binder,measurement,setting,value
B1,glycan array binding signal (z-score),[1],-0.181
same,glycan array binding signal (z-score),[2],-0.159
same,glycan array binding signal (z-score),[3],-0.147
same,glycan array binding signal (z-score),[4],-0.121
same,glycan array binding signal (z-score),[5],-0.162
same,glycan array binding signal (z-score),[6],-0.188
same,glycan array binding signal (z-score),[7],-0.115
same,glycan array binding signal (z-score),[8],-0.153
same,glycan array binding signal (z-score),[9],-0.171
same,glycan array binding signal (z-score),[10],-0.161
same,glycan array binding signal (z-score),[11],-0.114
same,glycan array binding signal (z-score),[12],-0.183
same,glycan array binding signal (z-score),[13],-0.197
same,glycan array binding signal (z-score),[14],-0.154
same,glycan array binding signal (z-score),[15],-0.168
same,glycan array binding signal (z-score),[16],-0.143
same,glycan array binding signal (z-score),[17],-0.056
same,glycan array binding signal (z-score),[18],-0.169
same,glycan array binding signal (z-score),[19],-0.166
same,glycan array binding signal (z-score),[20],-0.196
same,glycan array binding signal (z-score),[21],-0.192
same,glycan array binding signal (z-score),[22],-0.158
same,glycan array binding signal (z-score),[23],-0.134
same,glycan array binding signal (z-score),[24],-0.165
same,glycan array binding signal (z-score),[25],-0.183
same,glycan array binding signal (z-score),[26],-0.141
same,glycan array binding signal (z-score),[27],-0.212
same,glycan array binding signal (z-score),[28],-0.196
same,glycan array binding signal (z-score),[29],-0.192
same,glycan array binding signal (z-score),[30],-0.157
same,glycan array binding signal (z-score),[31],-0.111
same,glycan array binding signal (z-score),[32],-0.199
same,glycan array binding signal (z-score),[33],-0.167
same,glycan array binding signal (z-score),[34],-0.169
same,glycan array binding signal (z-score),[35],-0.144
same,glycan array binding signal (z-score),[36],-0.176
same,glycan array binding signal (z-score),[37],-0.172
same,glycan array binding signal (z-score),[38],-0.184
